Test results published in PubChem BioAssay AID1346428 (National Center for Advancing Translational Sciences (NCATS), 2018).
Values joined by “and” are separate entries in the source; they are usually repeats but may differ in a detail not shown here. Equal values may be shown once. Hit rate of the full screen: of about 48,000 compounds, about 1,200 (2.5%) were called active. Inconclusive results (about 2%) are left out.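 The calls were made as follows: active = activation of at least 60% and not above a set upper limit (about 1 call in 100 departs from these limits); inconclusive = activation of 40% to 60%, or above that upper limit; inactive = activation under 40%.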 The list shows a part of the results.

biological target: Probable G-protein coupled receptor 32 (Homo sapiens) (UniProt O75388); assay: qHTS for Agonists of Human Resolvin D1 Receptor DRV1; details: CHO-K1 GPR32 beta-arrestin PathHunter luminescence, 90 min; at 76.9 µM; active compounds read high; zero percent set by DMSO-only wells; also: 0% is about no effect
Outline: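 Cells are plated overnight, treated with compounds in DMSO for 90 minutes at 37 °C, and developed with PathHunter detection reagent for 1 hour before luminescence is read; signal reflects beta-arrestin binding to GPR32 in engineered CHO-K1 cells.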

UniProt O75388, sequence (O75388 whole entry, looked up): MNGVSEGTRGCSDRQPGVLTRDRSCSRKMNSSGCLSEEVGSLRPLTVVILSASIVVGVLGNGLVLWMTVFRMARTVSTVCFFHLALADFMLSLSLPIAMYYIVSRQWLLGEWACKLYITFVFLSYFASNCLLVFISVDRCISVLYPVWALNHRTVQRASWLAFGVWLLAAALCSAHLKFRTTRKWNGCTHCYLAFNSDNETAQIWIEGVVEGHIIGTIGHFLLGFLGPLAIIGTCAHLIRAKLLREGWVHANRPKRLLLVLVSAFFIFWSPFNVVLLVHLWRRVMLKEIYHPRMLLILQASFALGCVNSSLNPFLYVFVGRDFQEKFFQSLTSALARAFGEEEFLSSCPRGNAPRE

SMILES	activation
CCCOc1ccc(Cn2c(=O)sc3ccccc32)cc1	inactive: -5.52%
O=C(c1cc(O)c(O)c([N+](=O)[O-])c1)c1ccccc1F	inactive: -35.9%
COc1ccccc1NC(=O)c1c(NC(=O)c2cccs2)sc2c1CCC(C(C)(C)C)C2 (stereo unspecified)	inactive: -1.17%
Cc1ccc(-c2nc(SCC(=O)Nc3cc(C)on3)c3c(=O)n(C)c(=O)n(C)c3n2)cc1	inactive: 2.27%
O=C(CC(=O)Nc1ccccc1F)Nc1ccc2nc3n(c(=O)c2c1)CCCCC3	inactive: -14.7%
Cc1cccc(N2CCN(C(=O)c3ccc4c(c3)N(Cc3cccc(Cl)c3)C(=O)c3ccccc3S4=O)CC2)c1C (stereo unspecified)	inactive: -20.8%
CCc1ccc(OC(=O)c2sc3ncn(Cc4cccc(F)c4)c(=O)c3c2C)cc1	inactive: -8.6%
CCCCCNc1nc2c(-c3ccccc3)nnn2c2ccccc12	inactive: -5.51%
CCN(CCCCOC(=O)c1ccc(OC)c(OC)c1)C(C)Cc1ccc(OC)cc1 (stereo unspecified)	inactive: -9.74%
CCOc1cc(Cl)c(S(=O)(=O)n2cc(C)nc2CC)cc1Cl	inactive: 15%
COc1cccc(NC(=O)Nc2cc(-c3cn4cccnc4n3)ccc2OC)c1	inactive: -1.06%
CCn1cc2nc(SCc3ccccc3)n(Cc3ccc(C)cc3)c(=O)c2n1	inactive: 2.99%
O=C(NCC(c1ccco1)S(=O)(=O)c1cccs1)c1ccc(C(F)(F)F)cc1 (stereo unspecified)	inactive: -2.63%
CN(C)c1ccc(CNS(=O)(=O)c2csc(C(N)=O)c2)cc1	inactive: 1.13%
Cc1cc(C(C)(C)C)cc(C)c1CC1=NCCN1	inactive: 5.08% and inactive: -7.45%
COc1ccc(C)cc1NC(=O)c1cc(S(=O)(=O)NCCC2=CCCCC2)ccc1F	inactive: -24.8%
Clc1ccc(-c2noc3ncnc(N4CCCCC4)c23)cc1	active: 82.5%
COc1ccc(-c2noc(CSc3nnc(C)n3-c3ccc(C)cc3)n2)cc1	inactive: -2.18%
Cn1c(=O)c2c(nc(NCc3ccccc3)n2Cc2ccc(Cl)c(Cl)c2)n(C)c1=O	inactive: 22.1%
COc1ccc(C(=O)NCCc2nc3ccccc3[nH]2)cc1	inactive: 1.75%
CCCSc1nc2c(c(=O)[nH]1)C(c1ccc(O)c(OCC)c1)CC(=O)N2 (stereo unspecified)	inactive: -9.18%
COc1ccc(N2CC(C(=O)Nc3ccccc3-c3nc(-c4ccc(C)cc4)no3)CC2=O)cc1 (stereo unspecified)	inactive: 2.14%

SMILES	activation
CCOc1ccc(C(CC(=O)Nc2ccc(C(=O)OC)cc2)N2Cc3ccccc3C2=O)cc1OC (stereo unspecified)	inactive: -3.36%
O=c1[nH]ccc2c(O)cccc12	inactive: -9.86%
COc1cccc(NC(=O)c2oc3ccc(S(=O)(=O)N4CCC5(CC4)OCCO5)cc3c2C)c1	inactive: 9.26%
CC(C)(C)c1ccc(OCc2cc(=O)n3c4c(sc3n2)CCCC4)cc1	inactive: -5.54%
Cc1ccccc1CSCc1ccc(C(=O)NCCc2ccccc2)o1	inactive: 0.56%
CCOC(=O)C1=C(CN(C)Cc2ccccc2)NC(=O)NC1c1ccc(OC(C)C)cc1 (stereo unspecified)	inactive: 3.03%
CC(C)c1ccc(Nc2c(-c3ccsc3)nc3ccc(Cl)cn23)cc1	inactive: -6.03%
Cc1ccc2nc(NCCc3ccc(Cl)cc3)c3nncn3c2c1	inactive: -1.36%
COc1ccc(C)cc1NC(=O)Cc1ccc(NC(=O)N2CCCCc3ccccc32)cc1	inactive: -3.05%
Cc1ccc(C)c(Oc2c(C(F)(F)F)oc3c(CN4CCN(C)CC4)c(O)ccc3c2=O)c1	inactive: -14.3%
C[C@@H]1C[C@H]2[C@@H]3CCC4=CC(=O)C=C[C@]4(C)[C@@]3(F)[C@@H](O)C[C@]2(C)[C@H]1C(=O)CO	inactive: 6.34%
C#CC(C)(CC)OC(=O)c1ccccc1C(=O)O (stereo unspecified)	inactive: 37.3%
CCn1cc(C(=O)NCc2ccccc2Cl)c(=O)c2cc(S(=O)(=O)N3CCOCC3)ccc21	inactive: -1.37%
CCC(=O)C1=C(c2ccccc2)N(C(=O)CC)n2c(nnc2C2CCCCC2)S1	inactive: -18.5%
O=C(Nc1ccccc1[N+](=O)[O-])c1csnn1	inactive: -1.72%
CCCOc1ccc(CNC(=O)c2cc3oc4ccccc4c3n2C)cc1	inactive: -20.9%
COC(=O)c1c(SC)nc2ccccc2c1OCc1cc(C)ccc1C	inactive: -10.3%
Cc1ccc(CNC(=O)c2ccc(NC(=O)c3nsc4ccccc34)cc2)cc1	inactive: -9.04%
O=C(Nc1ccc2nc(SCC(=O)N3CCc4ccccc43)sc2c1)c1ccc(Cl)cc1	inactive: 16.5%
O=C(CSc1nc(-c2cccs2)cc(C(F)(F)F)n1)Nc1ccccc1Cl	inactive: -1.17%
CCN(CC)CCOCCOC(=O)C1(c2ccccc2)CCCC1	inactive: 24% and inactive: 5.54%
Cc1ccc(NC(=O)CN2C(=O)C(c3ccc(F)cc3)=NC2(C)C)c(C)c1	inactive: -5.78%

SMILES	activation
CCOc1ccccc1NC(=O)C(=O)NCC(c1cccnc1)N1CCN(c2ccccc2)CC1 (stereo unspecified)	inactive: -17.2%
Cc1ccc(N2CCN(C(=O)Nc3cn(CC(C)C)c(=O)c4ccccc34)CC2)c(C)c1	inactive: -7.07%
Cc1ccc(NC(=O)c2cc(-c3cccs3)nc3ccccc23)c(C)c1	inactive: -1.57%
CC(C)CCn1c(=O)c2sccc2n2c(CCCC(=O)Nc3ccc(F)c(Cl)c3)nnc12	inactive: -20.4%
O=C(NCc1ccc(F)cc1Cl)c1ccc(CSCc2ccccc2Cl)o1	inactive: -33.8%
CC(C)Oc1ccc(CNC(=O)c2cnc3sc(N4CCCCCC4)nn3c2=O)cc1	inactive: -3.54%
COc1ccccc1NC(=O)Cn1c(=O)n(Cc2nc(C)no2)c(=O)c2cc3c(cc21)OCO3	inactive: -6.85%
COc1ccccc1NC(=O)N1CCOc2ccccc21	inactive: 30.5%
Cc1cc(C)n2nc(CNS(=O)(=O)c3ccc(F)cc3)nc2n1	inactive: -9.4%
CCOc1ccc(/C=C/c2nc(C#N)c(N3CCCCCC3)o2)cc1	inactive: -21.3%
Cc1ccc(CNC(=O)c2ccc(CSCc3c(F)cccc3Cl)o2)cc1	inactive: -38.6%
COc1cccc(CNC(=O)c2ccc(CN3CC(=O)N4CCCCC4C3=O)cc2)c1 (stereo unspecified)	inactive: -15.4%
COc1ccccc1/C=C(\C#N)C(=O)NCC1CCCO1 (stereo unspecified)	inactive: -0.397%
CCn1c(C(=O)NCc2ccccc2)cc2sc(Cl)cc21	inactive: -16.4%
COC(=O)c1cc2oc3ccccc3c2n1CC(=O)Nc1ccc(C)cc1Cl	inactive: -4.5%
CCCN(CCC)CCNC(=O)Cn1cnc2sc(C)c(S(=O)(=O)N3CCN(c4ccccc4OC)CC3)c2c1=O	inactive: 11.1%
CCOc1ccc(-n2c(SCC(=O)N3CCCc4ccccc43)nc3c([nH]c4ccccc43)c2=O)cc1	inactive: -9.83%
O=C(CCn1c(=O)c2ccccc2n(Cc2ccc(Cl)cc2)c1=O)NCc1ccc2c(c1)OCO2	inactive: -2.02%
CCOc1ccccc1NC(=O)CCS(=O)(=O)c1ccc(OC)cc1	inactive: -7.18%
CCc1ccc(NC(=O)c2cc(CN3CCOCC3)on2)cc1	inactive: 19.7%
CN(c1ccc(Cl)cc1)S(=O)(=O)c1nnc(NC(=O)c2ccco2)s1	inactive: 21.9%
CCOC(=O)c1[nH]c(C)c(C(=O)NCCc2ccccc2)c1C	active: 84.6%

SMILES	activation
COc1ccc(CCNC(=O)C(=O)Nc2ccc(C)c(C)c2)cc1OC	inactive: -4.8%
CCCCC(=O)Nc1cccc(-c2nc3ccccc3s2)c1	active: 91.8%
CCCCN(C)CC(O)Cn1cc(/C=C/C(=O)c2ccc(OCC)cc2)c2ccccc21 (stereo unspecified)	inactive: 17%
Cc1cccc(-n2ccnc2SCC(=O)Nc2cc(C(F)(F)F)ccc2Cl)c1	inactive: 5.71%
CCOC(=O)c1ccc(CN(Cc2ccc(Cl)cc2Cl)S(=O)(=O)c2cccc(Cl)c2)cc1	inactive: -15.8%
Cc1cc(-c2ccc(C)c(S(=O)(=O)N(C(C)C)C3CCCCC3)c2)on1	inactive: -13.7%
N[C@H]1CONC1=O	inactive: 4.29%
O=C(O)CCSc1nnc(-c2ccc(Cl)cc2Cl)o1	inactive: 19.5%
CC1(C)O[C@H]2[C@@H](O1)[C@@H](C(=O)Nc1cc(F)ccc1F)O[C@@H]1OC(C)(C)O[C@@H]12	inactive: -10.6%
CCn1c(=O)c2c(nc(C=Cc3ccc(OC)c(OC)c3)n2C)n(CC)c1=O	inactive: -16%
Cc1cccc(-c2cc(C(=O)O)c3c(-c4ccc(F)cc4)[nH]nc3n2)c1	inactive: -11.5%
Cc1ccc2nc(N(Cc3cccnc3)C(=O)CCc3ccccc3)sc2c1	inactive: -12.5%
COc1cc2c(cc1OC)C(C(C(=O)N(CCc1ccc(OC)c(OC)c1OC)CCc1ccc(OC)c(OC)c1OC)c1ccccc1)=NCC2 (stereo unspecified)	inactive: 30.1%
COc1ccc(-c2nc3n(n2)C(c2cccc(C)c2)C(C(N)=O)=C(C)N3)cc1OC (stereo unspecified)	inactive: -10.2%
CC(=O)c1ccc(NC(=O)c2nn(C)c3c2CS(=O)(=O)c2ccccc2-3)cc1	inactive: -1.45%
O=C(CCBr)N1CCN(C(=O)CCBr)CC1	inactive: -28.6%
Cc1cccc(NC(=O)c2ccc(F)c(S(=O)(=O)N3CCN(c4ccc(F)cc4)CC3)c2)c1	inactive: -14.6%
CCOC(=O)C1=C(CN2CCCCC2)NC(=O)NC1c1ccc(OC)cc1 (stereo unspecified)	inactive: -4.81%
Cc1ccc(-c2cn3c(n2)sc2cc(C(=O)NC4CCCCC4)ccc23)cc1	inactive: 0.609%
COc1ccc(CCNC(=O)CCn2c(=O)c3cccn3c3ccc(F)cc32)cc1OC	inactive: -23.7%
